# Literature values as cited in article PMC11006913.
# Changes are numbered by the printed parent chain. Some of the results follow.
# How the values were obtained:
# Conditions in all cases: PBM; conditions not shown; double strand, one strand shown; scale: upbm affinity estimate (log intensity, higher = more binding, comparable within an allelic series)
# [1] = target: T1, HESX1 E149K (Homo sapiens) (UniProt Q9UBX0)
# T1 sequence: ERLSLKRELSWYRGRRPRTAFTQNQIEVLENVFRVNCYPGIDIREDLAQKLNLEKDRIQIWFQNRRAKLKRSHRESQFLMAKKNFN
# [2] = target: T2, HESX1 N125S (Homo sapiens) (UniProt Q9UBX0)
# T2 sequence: T1 sequence with N31S, K55E
# [3] = target: T3, HESX1 R160C (Homo sapiens) (UniProt Q9UBX0)
# T3 sequence: T1 sequence with K55E, R66C
sequence,measurement,setting,value
AGGCGAAG [8-mer AGGCGAAG],binding signal,[1],10
same,binding signal,[2],7.8
same,binding signal,[3],10.1
CCTAGCCG [8-mer CCTAGCCG],binding signal,[1],9.89
same,binding signal,[2],7.78
same,binding signal,[3],10
ACGGGGCC [8-mer ACGGGGCC],binding signal,[1],10
same,binding signal,[2],7.8
same,binding signal,[3],10.1
GCTCGCCC [8-mer GCTCGCCC],binding signal,[1],9.93
same,binding signal,[2],7.77
same,binding signal,[3],10
ACCGGAGG [8-mer ACCGGAGG],binding signal,[1],9.92
same,binding signal,[2],7.87
same,binding signal,[3],10
CGCCAAGA [8-mer CGCCAAGA],binding signal,[1],9.85
same,binding signal,[2],7.79
same,binding signal,[3],10
GGCCGGCC [8-mer GGCCGGCC],binding signal,[1],9.77
same,binding signal,[2],7.71
same,binding signal,[3],9.88
AGGCGAGA [8-mer AGGCGAGA],binding signal,[1],9.92
same,binding signal,[2],7.7
same,binding signal,[3],9.97
AGTGCGCC [8-mer AGTGCGCC],binding signal,[1],9.91
same,binding signal,[2],7.7
same,binding signal,[3],10
CCCCCTTA [8-mer CCCCCTTA],binding signal,[1],9.93
same,binding signal,[2],7.81
same,binding signal,[3],10
CTGCTGCC [8-mer CTGCTGCC],binding signal,[1],9.87
same,binding signal,[2],7.72
same,binding signal,[3],10
CTCTGGGC [8-mer CTCTGGGC],binding signal,[1],9.97
same,binding signal,[2],7.78
same,binding signal,[3],10
GCCGCCAC [8-mer GCCGCCAC],binding signal,[1],9.9
same,binding signal,[2],7.49
same,binding signal,[3],10
AATTATCG [8-mer AATTATCG],binding signal,[1],11.4
same,binding signal,[2],11.2
same,binding signal,[3],10.3
CCTTCGAG [8-mer CCTTCGAG],binding signal,[1],9.87
same,binding signal,[2],7.68
same,binding signal,[3],10
ATTAGCAC [8-mer ATTAGCAC],binding signal,[1],10.8
same,binding signal,[2],9.72
same,binding signal,[3],10.3
CAACCGGC [8-mer CAACCGGC],binding signal,[1],10
same,binding signal,[2],7.74
same,binding signal,[3],10.1
ACCCCCAC [8-mer ACCCCCAC],binding signal,[1],9.87
same,binding signal,[2],7.71
same,binding signal,[3],10
CCCAGGAA [8-mer CCCAGGAA],binding signal,[1],9.94
same,binding signal,[2],7.76
same,binding signal,[3],10
